# The supplement of paper PMC8728848
# This is one part of the list.
# B1: MGL6A (Homo sapiens) (protein)
# chain: MTRTYENFQYLENKVKVQGFKNGPLPLQSLLQRLCSGPCHLLLSLGLGLLLLVIICVVGFQNSKFQRDLVTLRTDFSNFTSNTVAEIQALTSQGSSLEETIASLKAEVEGFKQERQAVHSEMLLRVQQLVQDLKKLTCQVATLNNNGEEASTEGTCCPVNWVEHQDSCYWFSHSGMSWAEAEKYCQLKNAHLVVINSREEQNFVQKYLGSAYTWMGLSDPEGAWKWVDGTDYATGFQNWKPGQPDDWQGHGLGGGEDCAHFTPDGRWNDDVCQRPYHWVCEAGLGQTSQESH
# What was measured:
# Assay in all cases: glycan array binding signal (z-score within array); higher = stronger binding
# Conditions in all cases: glycan notation: IUPAC condensed, linker removed; mutation: H262T
# [1] = target: Fuc(a1-2)Gal(b1-4)GlcNAc(b1-3)Gal(b1-4)GlcNAc(b1-2)Man(a1-3)[Fuc(a1-2)Gal(b1-4)GlcNAc(b1-3)Gal(b1-4)GlcNAc(b1-2)Man(a1-6)]Man(b1-4)GlcNAc(b1-4)GlcNAc
# Outline: (§1)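 Glycan array binding is given as a within-array Z-score, which can be read as non-binding when negative. The arrays, 3228 of them, came from the Consortium for Functional Glycomics database and were retained only where the protein sequence was available. Z-scores were averaged across arrays of the same protein sequence at different concentrations or buffers and across linkers.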
# [2] = target: Fuc(a1-2)Gal(b1-4)GlcNAc(b1-3)Gal(b1-4)GlcNAc(b1-3)Gal(b1-4)GlcNAc
# Outline: as §1
# [3] = target: Fuc(a1-2)Gal(b1-4)GlcNAc(b1-3)GalNAc
# Outline: as §1
# [4] = target: Fuc(a1-2)Gal(b1-4)GlcNAc(b1-3)[Fuc(a1-2)Gal(b1-4)GlcNAc(b1-6)]GalNAc
# Outline: as §1
# [5] = target: Fuc(a1-2)Gal(b1-4)GlcNAc(b1-3)[Fuc(a1-3)[Gal(b1-4)]GlcNAc(b1-6)]Gal(b1-4)Glc
# Outline: as §1
# [6] = target: Fuc(a1-2)Gal(b1-4)GlcNAc(b1-6)GalNAc
# Outline: as §1
# [7] = target: Fuc(a1-2)Gal(b1-4)GlcNAc6S
# Outline: as §1
# [8] = target: Fuc(a1-2)Gal(b1-4)[Fuc(a1-3)]GlcNAc
# Outline: as §1
# [9] = target: Fuc(a1-2)Gal(b1-4)[Fuc(a1-3)]GlcNAc(b1-2)Man(a1-3)[Fuc(a1-2)Gal(b1-4)[Fuc(a1-3)]GlcNAc(b1-2)Man(a1-6)]Man(b1-4)GlcNAc(b1-4)[Fuc(a1-6)]GlcNAc
# Outline: as §1
# [10] = target: Fuc(a1-2)Gal(b1-4)[Fuc(a1-3)]GlcNAc(b1-2)[Fuc(a1-2)Gal(b1-4)[Fuc(a1-3)]GlcNAc(b1-4)]Man(a1-3)[Fuc(a1-2)Gal(b1-4)[Fuc(a1-3)]GlcNAc(b1-2)Man(a1-6)]Man(b1-4)GlcNAc(b1-4)GlcNAc
# Outline: as §1
# [11] = target: Fuc(a1-2)Gal(b1-4)[Fuc(a1-3)]GlcNAc(b1-3)Gal(b1-4)[Fuc(a1-3)]GlcNAc
# Outline: as §1
# [12] = target: Fuc(a1-2)Gal(b1-4)[Fuc(a1-3)]GlcNAc(b1-3)Gal(b1-4)[Fuc(a1-3)]GlcNAc(b1-3)Gal(b1-4)[Fuc(a1-3)]GlcNAc
# Outline: as §1
# [13] = target: Fuc(a1-2)Gal(b1-4)[Fuc(a1-3)]GlcNAc(b1-3)GalNAc
# Outline: as §1
# [14] = target: Fuc(a1-2)Gal(b1-4)[Fuc(a1-3)]GlcNAc(b1-3)[Neu5Ac(a2-6)Gal(b1-4)GlcNAc(b1-6)]Gal(b1-4)Glc
# Outline: as §1
# [15] = target: Fuc(a1-2)Gal3S(b1-4)GlcNAc
# Outline: as §1
# [16] = target: Fuc(a1-2)Gal6S(b1-3)GlcNAc
# Outline: as §1
# [17] = target: Fuc(a1-2)Gal6S(b1-3)GlcNAc6S
# Outline: as §1
# Fuc(a1-2)Gal6S(b1-4)Glc = target: Fuc(a1-2)Gal6S(b1-4)Glc
# Outline: as §1
# [18] = target: Fuc(a1-2)Gal6S(b1-4)Glc6S
# Outline: as §1
# Fuc(a1-2)[Gal(a1-3)]Gal = target: Fuc(a1-2)[Gal(a1-3)]Gal
# Outline: as §1
# [19] = target: Fuc(a1-2)[Gal(a1-3)]Gal(b1-3)GalNAc
# Outline: as §1
# [20] = target: Fuc(a1-2)[Gal(a1-3)]Gal(b1-3)GalNAc(b1-3)Gal(a1-4)Gal(b1-4)Glc
# Outline: as §1
# [21] = target: Fuc(a1-2)[Gal(a1-3)]Gal(b1-3)GlcNAc
# Outline: as §1
# [22] = target: Fuc(a1-2)[Gal(a1-3)]Gal(b1-3)GlcNAc(b1-2)Man(a1-3)[Fuc(a1-2)[Gal(a1-3)]Gal(b1-3)GlcNAc(b1-2)Man(a1-6)]Man(b1-4)GlcNAc(b1-4)GlcNAc
# Outline: as §1
# [23] = target: Fuc(a1-2)[Gal(a1-3)]Gal(b1-3)GlcNAc(b1-2)Man(a1-3)[Fuc(a1-2)[Gal(a1-3)]Gal(b1-3)GlcNAc(b1-2)Man(a1-6)]Man(b1-4)GlcNAc(b1-4)[Fuc(a1-6)]GlcNAc
# Outline: as §1
# [24] = target: Fuc(a1-2)[Gal(a1-3)]Gal(b1-3)GlcNAc(b1-3)GalNAc
# Outline: as §1
# [25] = target: Fuc(a1-2)[Gal(a1-3)]Gal(b1-3)GlcNAc(b1-6)GalNAc
# Outline: as §1
# [26] = target: Fuc(a1-2)[Gal(a1-3)]Gal(b1-4)Glc
# Outline: as §1
# [27] = target: Fuc(a1-2)[Gal(a1-3)]Gal(b1-4)GlcNAc
# Outline: as §1
# [28] = target: Fuc(a1-2)[Gal(a1-3)]Gal(b1-4)GlcNAc(b1-2)Man
# Outline: as §1
binder,measurement,setting,value
B1,glycan array binding signal (z-score),[1],-0.171
same,glycan array binding signal (z-score),[2],-0.173
same,glycan array binding signal (z-score),[3],-0.175
same,glycan array binding signal (z-score),[4],-0.17
same,glycan array binding signal (z-score),[5],-0.173
same,glycan array binding signal (z-score),[6],7.25
same,glycan array binding signal (z-score),[7],-0.173
same,glycan array binding signal (z-score),[8],-0.177
same,glycan array binding signal (z-score),[9],-0.172
same,glycan array binding signal (z-score),[10],-0.168
same,glycan array binding signal (z-score),[11],-0.172
same,glycan array binding signal (z-score),[12],-0.171
same,glycan array binding signal (z-score),[13],-0.165
same,glycan array binding signal (z-score),[14],-0.171
same,glycan array binding signal (z-score),[15],-0.177
same,glycan array binding signal (z-score),[16],-0.175
same,glycan array binding signal (z-score),[17],-0.154
same,glycan array binding signal (z-score),Fuc(a1-2)Gal6S(b1-4)Glc,-0.173
same,glycan array binding signal (z-score),[18],-0.179
same,glycan array binding signal (z-score),Fuc(a1-2)[Gal(a1-3)]Gal,-0.171
same,glycan array binding signal (z-score),[19],-0.175
same,glycan array binding signal (z-score),[20],-0.172
same,glycan array binding signal (z-score),[21],-0.172
same,glycan array binding signal (z-score),[22],-0.176
same,glycan array binding signal (z-score),[23],-0.175
same,glycan array binding signal (z-score),[24],-0.174
same,glycan array binding signal (z-score),[25],2.7
same,glycan array binding signal (z-score),[26],-0.172
same,glycan array binding signal (z-score),[27],-0.17
same,glycan array binding signal (z-score),[28],-0.177
